# Reference: PubChem BioAssay AID588855 (National Center for Advancing Translational Sciences (NCATS), 2011)
# Hit rate of the full screen: of about 410,000 compounds, about 5,000 (1.2%) were called active. Inconclusive means that the source gave no clear call. Such entries were picked first, then a sample of the others. The call rests on the fitted dose curve; in most records, active means well fitted inhibition curve with a large enough effect; inconclusive means small, poorly fitted or top-dose-only effect; inactive means no such curve, though single readings can be large or run the other way. A potency beside an inconclusive call is a rough fit, not a confirmed value.
# Test: qHTS for Inhibitors of TGF-b; further: nearly all actives have a fitted effect of over 65% in size
# Settings: HepG2 CAGA-GFP TGF-b/SMAD3 reporter, GFP fluorescence, 18 h, TGF-beta stimulated, 500 pg/mL final; series mostly up to 46.1 µM
# Summary of the method: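 Inhibition of TGF-beta-driven CAGA-GFP reporter expression in HEPG2 cells is measured by cellular GFP fluorescence after 18 h stimulation with 500 pg/mL recombinant TGF-beta in 1% FBS medium at 37 degrees C.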
# Potency means the concentration at half of the fitted maximal effect; tags describe the fitted curve by direction and shape.
row,SMILES,Potency
1,COc1ccc(NC(=O)CSc2nc(NS(=O)(=O)c3ccccc3)cc(=O)[nH]2)cc1,inactive
2,Cc1ccccc1N=C/C=C1/C=C(c2ccccc2)OC(C)(C)O1,inactive
3,O=C(NCc1csc(-c2cccs2)n1)Nc1ccc(F)cc1F,"inconclusive: 3.16 µM [inhibitor, partial curve]"
4,COC(=O)c1cc(S(=O)(=O)NCCc2ccc(Cl)cc2)c[nH]1,"inconclusive: 35.5 µM [inhibitor, partial curve, poor fit]"
5,CC1C(c2ccccc2)N(C)C(c2ccccc2)CC1(O)c1ccccc1 (centres undefined),"inconclusive: 35.5 µM [inhibitor, single point]"
6,COc1ccc(NS(=O)(=O)c2ccc3oc(SC)nc3c2)cc1,"inconclusive: 35.5 µM [inhibitor, single point]"
7,COc1ccc(C(=O)Nc2cccc(-c3ccc4nncn4n3)c2)cc1OC,inactive
8,CCCCNC(=O)C1=C(N)C(C(=O)Nc2ccc(C)c(S(=O)(=O)N3CCCCC3)c2)SC1=Nc1ccc(C)cc1C (centres undefined),inactive
9,COc1ccc(C2=NN(C(=O)CSc3ncccn3)C(c3ccc(C)cc3)C2)cc1 (centres undefined),"inconclusive: 14.1 µM [inhibitor, single point]"
10,Cc1cccc(NC2SC(=O)N(c3ccccc3)C2=O)c1 (centres undefined),"inconclusive: 35.5 µM [inhibitor, single point]"
11,COc1ccc(OC)c(CCNc2nc3ccccc3c3nc(-c4cccnc4)nn23)c1,"inconclusive: 5.01 µM [inhibitor, partial curve, poor fit]"
12,COc1cccc(CNC(=O)CC(NC(=O)c2ccccc2)c2ccccc2)c1 (centres undefined),inactive
13,Cc1ccccc1-c1noc(CCC(=O)NCc2ccco2)n1,inactive
14,Cc1cc2ccccn2c1C(=O)c1nc(NCc2ccco2)ncc1Cl,"inconclusive: 35.5 µM [inhibitor, single point]"
15,O=C(Nc1ccc(O)cc1)N1CCOCC1,inactive
16,CC(C)(C)OC(=O)N1CCC(c2c(C(=O)NCCN3CCC(Cc4ccccc4)CC3)cnn2-c2ccc(F)cc2)CC1,"inconclusive: 31.6 µM [inhibitor, single point]"
17,CCOC(OCC)c1cn(Cc2ccc(C(=O)c3ccccc3)cc2)nn1,"inconclusive: 20 µM [inhibitor, single point]"
18,O=C1CC(/C=C/c2ccccc2)=Nc2ccccc2N1,"inconclusive: 31.6 µM [inhibitor, single point]"
19,O=C(CCc1ccccc1)C(=O)N1CCCC(C(=O)c2cccc(Cl)c2)C1 (centres undefined),"inconclusive: 3.55 µM [inhibitor, full curve]"
20,Cc1onc(-c2ccc(Cl)cc2)c1-c1ccnc(SCC(=O)Nc2cc(Cl)cc(Cl)c2)n1,"inconclusive: 35.5 µM [inhibitor, single point]"
21,CCCc1nc(SCC(=O)Nc2nnc(SCC)s2)c2c(=O)n(C)c(=O)n(C)c2n1,inactive
22,O=C(CNc1ccccc1)N/N=C/c1ccc([N+](=O)[O-])o1,"inconclusive: 11.2 µM [inhibitor, partial curve, poor fit]"
23,COc1ccc(-c2[nH]nc3c2C(c2ccncc2)C(C#N)=C(N)O3)cc1 (centres undefined),"inconclusive: 15.8 µM [inhibitor, single point]"

row,SMILES,Potency
1,Fc1ccc(CNc2nc(-c3ccccc3)nc3ccccc23)cc1,active: 17.8 µM
2,COC(=O)C1C(O)=C(C=Nc2cccc3ccccc23)C(=O)CC1(C)C (centres undefined),"inconclusive: 3.16 µM [inhibitor, partial curve, poor fit]"
3,Cc1cccc2c1N(CCOc1ccc(C(C)(C)C)cc1)C(=O)C2=O,inactive
4,COCCn1c(SCC(=O)Nc2cccnc2Cl)nc2cc(Cl)ccc2c1=O,inactive
5,O=C(CCNC(=O)C1CCN(S(=O)(=O)c2ccccc2)CC1)NCc1ccncc1,inactive
6,NC(=O)CC(NC(=O)Cc1ccc(Br)cc1)c1ccc(N2CCc3ccccc3C2)c([N+](=O)[O-])c1 (centres undefined),inactive
7,COc1ccc(C(=O)Cn2c(=O)c(-c3cc(C)ccc3NC(C)=O)nc3ccccc32)cc1,inactive
8,Cc1[nH]c2ccc(C(=O)N3CCN(c4ccc(F)cc4)CC3)cc2c1C,inactive
9,COC(=O)c1ccccc1NC(=O)N1CCc2c(sc3c2CCCC3)C1c1ccc(F)cc1 (centres undefined),inactive
10,COc1ccc(S(=O)(=O)N2CCCC(C(=O)NCc3ccco3)C2)cc1Cl (centres undefined),"inconclusive: 3.16 µM [inhibitor, partial curve, poor fit]"
11,Cc1cc(C)nc(-n2ncc3c2CC(c2ccccc2)CC3=O)n1 (centres undefined),"inconclusive: 12.6 µM [inhibitor, partial curve, poor fit]"
12,COc1ccc(/C=C2/C(=O)ON=C2c2ccccc2)cc1OC,"inconclusive: 0.631 µM [inhibitor, full curve, poor fit]"
13,COc1cc2c(=O)n(CCc3ccccc3)c(=O)n(CC(=O)Nc3ccccc3)c2cc1OC,"inconclusive: 12.6 µM [inhibitor, partial curve, poor fit]"
14,CCN(CC(=O)Nc1ccc(Br)cc1)C(=O)c1nc2nc(C)cc(C)n2n1,inactive
15,Cn1c(SCC(=O)c2c(N)n(C)c(=O)n(C)c2=O)nnc1-c1ccc(F)cc1,"inconclusive: 35.5 µM [inhibitor, single point]"
16,Cc1ccc(C(=O)O)cc1N1C(=O)c2cccc3c([N+](=O)[O-])ccc(c23)C1=O,"inconclusive: 35.5 µM [inhibitor, single point]"
17,Cc1ccccc1N(C(=O)Cc1c[nH]c2ccccc12)C(C(=O)NC1CCCCC1)c1ccco1 (centres undefined),inactive
18,c1ccc(-c2csc3ncnc(N4CCN(Cc5ccc6c(c5)OCO6)CC4)c23)cc1,inactive
19,CCOc1ccccc1CNc1ncnc2ccc(-c3c(C)noc3C)cc12,inactive
20,CCCC(=O)Nc1cc(-c2nnc(OC)c3ccccc23)ccc1N1CCOCC1,"inconclusive: 3.16 µM [inhibitor, partial curve, poor fit]"
21,COc1ccc2cc(C=O)n(C)c2c1,inactive
22,C[C@H]1CN([C@@H](C)CO)C(=O)c2cccc(NC(=O)Nc3ccc(C(F)(F)F)cc3)c2O[C@@H]1CN(C)C(=O)Nc1ccc(F)cc1,"inconclusive: 25.1 µM [inhibitor, single point]"
23,O=C(CCN1C(=O)/C(=C/c2ccccc2F)SC1=S)NCCc1ccc(O)cc1,"inconclusive: 14.1 µM [inhibitor, partial curve]"

row,SMILES,Potency
1,CC(C)CC(=O)Nc1c(C(=O)N2CCN(c3ccccc3)CC2)oc2ccccc12,inactive
2,Cc1ccc(-n2nnnc2SC(C)C(=O)Nc2ccc(Cl)cn2)cc1 (centres undefined),inactive
3,CCCn1c(SCC(=O)N2N=C3/C(=C/c4ccc(OC)cc4)CCCC3C2c2ccc(OC)cc2)n[nH]c1=O (centres undefined),active: 12.6 µM
4,Cc1ccc(-c2csc(NCCc3nc4cc(Cl)c(Cl)cc4n3CCOCCO)n2)cc1,"inconclusive: 17.8 µM [inhibitor, single point]"
5,CCc1cccc(C)c1NC(=O)C1CCCN(S(C)(=O)=O)C1 (centres undefined),inactive
6,COc1cc(S(=O)(=O)N2CCN(Cc3ccc4c(c3)OCO4)CC2)c(C)cc1C,"inconclusive: 25.1 µM [inhibitor, single point]"
7,CCc1ccccc1N(C)C(=O)c1cc2c(=O)oc3ccccc3c2s1,"inconclusive: 35.5 µM [inhibitor, single point]"
8,Cc1ccc(S(=O)(=O)C(C#N)c2nc3ccccc3nc2N2CCCC2)cc1 (centres undefined),"inconclusive: 17.8 µM [inhibitor, single point]"
9,CC(C)(C)CNC(=O)C1(C)CCN1C(=O)c1ccccc1CCc1ccccc1 (centres undefined),inactive
10,CCc1nc2c(OCc3cc(Cl)cc(Cl)c3)cccn2c1N(C)C(=O)c1ccccc1F,"inconclusive: 35.5 µM [inhibitor, single point]"
11,COc1ccc(CNC(=O)c2ccc(NC(=O)N3CCCCc4ccccc43)cc2)cc1,inactive
12,COC(=O)c1ccc(N(C(=O)CNC(=O)c2ccco2)C(C(=O)NC2CCCC2)c2ccco2)cc1 (centres undefined),"inconclusive: 17.8 µM [inhibitor, partial curve, poor fit]"
13,CC(=O)NS(=O)(=O)c1ccc(NC(=O)C(Sc2ccccc2)c2ccccc2)cc1 (centres undefined),inactive
14,Cc1cc(Nc2cccc(Cl)c2)nc2ccc(NC(=O)Cc3cccc(C(F)(F)F)c3)cc12,"inconclusive: 35.5 µM [inhibitor, single point]"
15,COc1ccc(Cn2c(=O)c3oc4ccccc4c3n(Cc3ccc(F)cc3)c2=O)cc1,inactive
16,COc1cccc(C2=NOC(C(=O)NCCN3CCOCC3)C2)c1 (centres undefined),"inconclusive: 14.1 µM [inhibitor, partial curve, poor fit]"
17,COc1cc(C2CC(=O)Nc3cc4c(cc32)OCCO4)cc(Br)c1OC (centres undefined),"inconclusive: 0.794 µM [inhibitor, full curve, poor fit]"
18,Cc1ccccc1C(=O)NC(=S)Nc1ccc(S(=O)(=O)N(C)c2ccccc2)cc1,inactive
19,Fc1ccc(-c2noc3ncnc(NC4CCCCC4)c23)cc1,inactive
20,CC[C@]1(O)C[C@H]2CN(CCc3c([nH]c4ccccc34)[C@@](C(=O)OC)(c3cc4c(cc3OC)N(C=O)[C@H]3[C@@](O)(C(=O)OC)[C@H](OC(C)=O)[C@]5(CC)C=CCN6CC[C@]43[C@@H]65)C2)C1,active: 0.562 µM
21,O=C(CSCC(=O)N1CCCCC1)Nc1nc(-c2ccc(Cl)s2)cs1,"inconclusive: 0.447 µM [inhibitor, full curve, poor fit]"
22,COc1ccc(N2CCN(C(=O)CCSCc3ccccc3F)CC2)cc1,"inconclusive: 35.5 µM [inhibitor, single point]"
23,COc1ccc(C(=O)/C=C/c2ccc(OC)c(O)c2)c(F)c1,"inconclusive: 35.5 µM [inhibitor, single point]"
